Test results as given in the supplement of paper PMC8728848.
The list shows a part of the results.

Legend:
Test in all cases: glycan array binding signal (z-score within array); higher = stronger binding
Conditions in all cases: glycan notation: IUPAC condensed, linker removed
Gal(a1-6)Glc = molecular target: Gal(a1-6)Glc
Outline: (§1)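 Columns mapping to the same glycan were averaged after glycan names were converted to IUPAC-condensed notation. The data come from 3228 arrays in the Consortium for Functional Glycomics database, limited to those with an available protein sequence. Binding is reported as a within-array Z-score averaged across arrays of one protein sequence and across linkers.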

Gal(b1-2)Gal = molecular target: Gal(b1-2)Gal
Outline: as §1

Gal(b1-3)Gal = molecular target: Gal(b1-3)Gal
Outline: as §1

Gal(b1-3)Gal(b1-4)GlcNAc = molecular target: Gal(b1-3)Gal(b1-4)GlcNAc
Outline: as §1

Gal(b1-3)GalNAc = molecular target: Gal(b1-3)GalNAc
Outline: as §1

[1] = molecular target: Gal(b1-3)GalNAc(a1-3)[Fuc(a1-2)]Gal(b1-4)Glc
Outline: as §1

[2] = molecular target: Gal(b1-3)GalNAc(a1-3)[Fuc(a1-2)]Gal(b1-4)GlcNAc
Outline: as §1

Gal(b1-3)GalNAc(b1-3)Gal = molecular target: Gal(b1-3)GalNAc(b1-3)Gal
Outline: as §1

[3] = molecular target: Gal(b1-3)GalNAc(b1-3)Gal(a1-4)Gal(b1-4)Glc
Outline: as §1

[4] = molecular target: Gal(b1-3)GalNAc(b1-4)Gal(b1-4)Glc
Outline: as §1

[5] = molecular target: Gal(b1-3)GalNAc(b1-4)[Neu5Ac(a2-3)]Gal(b1-4)Glc
Outline: as §1

Gal(b1-3)GlcNAc = molecular target: Gal(b1-3)GlcNAc
Outline: as §1

[6] = molecular target: Gal(b1-3)GlcNAc(a1-3)Gal(b1-4)GlcNAc
Outline: as §1

[7] = molecular target: Gal(b1-3)GlcNAc(a1-6)Gal(b1-4)GlcNAc
Outline: as §1

Gal(b1-3)GlcNAc(b1-2)Man = molecular target: Gal(b1-3)GlcNAc(b1-2)Man
Outline: as §1

[8] = molecular target: Gal(b1-3)GlcNAc(b1-2)Man(a1-3)[Gal(b1-3)GlcNAc(b1-2)Man(a1-6)]Man(b1-4)GlcNAc(b1-4)GlcNAc
Outline: as §1

[9] = molecular target: Gal(b1-3)GlcNAc(b1-2)Man(a1-3)[Gal(b1-3)GlcNAc(b1-2)Man(a1-6)]Man(b1-4)GlcNAc(b1-4)[Fuc(a1-6)]GlcNAc
Outline: as §1

[10] = molecular target: Gal(b1-3)GlcNAc(b1-2)Man(a1-3)[GlcNAc(b1-4)][Gal(b1-3)GlcNAc(b1-2)Man(a1-6)]Man(b1-4)GlcNAc(b1-4)GlcNAc
Outline: as §1

[11] = molecular target: Gal(b1-3)GlcNAc(b1-2)[Gal(b1-3)GlcNAc(b1-6)]Man(a1-6)[Gal(b1-3)GlcNAc(b1-2)Man(a1-3)]Man(b1-4)GlcNAc(b1-4)GlcNAc
Outline: as §1

[12] = molecular target: Gal(b1-3)GlcNAc(b1-3)Gal(b1-3)GlcNAc
Outline: as §1

[13] = molecular target: Gal(b1-3)GlcNAc(b1-3)Gal(b1-4)Glc
Outline: as §1

[14] = molecular target: Gal(b1-3)GlcNAc(b1-3)Gal(b1-4)GlcNAc
Outline: as §1

[15] = molecular target: Gal(b1-3)GlcNAc(b1-3)Gal(b1-4)GlcNAc(b1-2)Man(a1-3)[Gal(b1-3)GlcNAc(b1-3)Gal(b1-4)GlcNAc(b1-2)Man(a1-6)]Man(b1-4)GlcNAc(b1-4)GlcNAc
Outline: as §1

[16] = molecular target: Gal(b1-3)GlcNAc(b1-3)Gal(b1-4)GlcNAc(b1-2)[Gal(b1-3)GlcNAc(b1-3)Gal(b1-4)GlcNAc(b1-6)]Man(a1-6)[Gal(b1-3)GlcNAc(b1-3)Gal(b1-4)GlcNAc(b1-2)Man(a1-3)]Man(b1-4)GlcNAc(b1-4)[Fuc(a1-6)]GlcNAc
Outline: as §1

[17] = molecular target: Gal(b1-3)GlcNAc(b1-3)Gal(b1-4)GlcNAc(b1-3)Gal(b1-4)GlcNAc(b1-2)[Gal(b1-3)GlcNAc(b1-3)Gal(b1-4)GlcNAc(b1-3)Gal(b1-4)GlcNAc(b1-6)]Man(a1-6)[Gal(b1-3)GlcNAc(b1-3)Gal(b1-4)GlcNAc(b1-3)Gal(b1-4)GlcNAc(b1-2)Man(a1-3)]Man(b1-4)GlcNAc(b1-4)[Fuc(a1-6)]GlcNAc
Outline: as §1

[18] = molecular target: Gal(b1-3)GlcNAc(b1-3)Gal(b1-4)GlcNAc(b1-6)[Gal(b1-3)GlcNAc(b1-3)]Gal(b1-4)Glc
Outline: as §1

[19] = molecular target: Gal(b1-3)GlcNAc(b1-3)Gal(b1-4)[Fuc(a1-3)]GlcNAc
Outline: as §1

[20] = molecular target: Gal(b1-3)GlcNAc(b1-3)Gal(b1-4)[Fuc(a1-3)]GlcNAc(b1-6)[Gal(b1-3)GlcNAc(b1-3)]Gal(b1-4)Glc
Outline: as §1

[21] = molecular target: Gal(b1-3)GlcNAc(b1-3)GalNAc
Outline: as §1

[22] = molecular target: Gal(b1-3)GlcNAc(b1-6)Gal(b1-4)GlcNAc
Outline: as §1

[23] = molecular target: Gal(b1-3)GlcNAc(b1-6)GalNAc
Outline: as §1

[24] = molecular target: Gal(b1-3)GlcNAc(b1-6)[Gal(b1-3)]GalNAc
Outline: as §1

Gal(b1-3)GlcNAc6S = molecular target: Gal(b1-3)GlcNAc6S
Outline: as §1

[25] = molecular target: Gal(b1-3)[Fuc(a1-4)]GlcNAc
Outline: as §1

[26] = molecular target: Gal(b1-3)[Fuc(a1-4)]GlcNAc(b1-2)Man
Outline: as §1

[27] = molecular target: Gal(b1-3)[Fuc(a1-4)]GlcNAc(b1-2)Man(a1-3)[Gal(b1-3)[Fuc(a1-4)]GlcNAc(b1-2)Man(a1-6)]Man(b1-4)GlcNAc(b1-4)[Fuc(a1-6)]GlcNAc
Outline: as §1

[28] = molecular target: Gal(b1-3)[Fuc(a1-4)]GlcNAc(b1-3)Gal(b1-3)[Fuc(a1-4)]GlcNAc
Outline: as §1

B1: Als1 (Candida albicans), P46590 (protein)
chain: KTITGVFDSFNSLTWSNAANYAFKGPGYPTWNAVLGWSLDGTSANPGDTFTLNMPCVFKYTTSQTSVDLTADGVKYATCQFYSGEEFTTFSTLTCTVNDALKSSIKAFGTVTLPIAFNVGGTGSSTDLEDSKCFTAGTNTVTFNDGDKDISIDVEFEKSTVDPSGYLYASRVMPSLNKVTTLFVAPQCENGYTSGTMGFSSSNGDVAIDCSNIHIGITKGLNDWNYPVSSESFSYTKTCTSNGIQIKYQNVPAGYRPFIDAYISATDVNQYTLAYTNDYTCAGSRLQSKPFTLRWTGYKNSDAGSNGIVIVATTRTVTDSTTAVTTLPFNPSVDKTKTIEILQPIPTTTITTSYVGVTTSYLTKTAPIGETATVIVDVPYHTTTTVTSEWTGTITTTTTRTNPTDSIDTVVVQVP
Gal(a1-6)Glc
  glycan array binding signal (z-score): -0.227
Gal(b1-2)Gal
  glycan array binding signal (z-score): -0.234
Gal(b1-3)Gal
  glycan array binding signal (z-score): -0.458
Gal(b1-3)Gal(b1-4)GlcNAc
  glycan array binding signal (z-score): -0.058
Gal(b1-3)GalNAc
  glycan array binding signal (z-score): -0.348
[1]
  glycan array binding signal (z-score): -0.394
[2]
  glycan array binding signal (z-score): -0.578
Gal(b1-3)GalNAc(b1-3)Gal
  glycan array binding signal (z-score): -0.585
[3]
  glycan array binding signal (z-score): -0.424
[4]
  glycan array binding signal (z-score): -0.41
[5]
  glycan array binding signal (z-score): -0.618
Gal(b1-3)GlcNAc
  glycan array binding signal (z-score): -0.525
[6]
  glycan array binding signal (z-score): -0.432
[7]
  glycan array binding signal (z-score): -0.456
Gal(b1-3)GlcNAc(b1-2)Man
  glycan array binding signal (z-score): 0.092
[8]
  glycan array binding signal (z-score): -0.233
[9]
  glycan array binding signal (z-score): -0.671
[10]
  glycan array binding signal (z-score): -0.487
[11]
  glycan array binding signal (z-score): -0.432
[12]
  glycan array binding signal (z-score): 0.919
[13]
  glycan array binding signal (z-score): -0.736
[14]
  glycan array binding signal (z-score): -0.399
[15]
  glycan array binding signal (z-score): 1.32
[16]
  glycan array binding signal (z-score): 0.97
[17]
  glycan array binding signal (z-score): 0.306
[18]
  glycan array binding signal (z-score): -0.582
[19]
  glycan array binding signal (z-score): -0.629
[20]
  glycan array binding signal (z-score): -0.704
[21]
  glycan array binding signal (z-score): -0.05
[22]
  glycan array binding signal (z-score): -0.706
[23]
  glycan array binding signal (z-score): -0.121
[24]
  glycan array binding signal (z-score): -0.388
Gal(b1-3)GlcNAc6S
  glycan array binding signal (z-score): -0.289
[25]
  glycan array binding signal (z-score): 0.004
[26]
  glycan array binding signal (z-score): 1.41
[27]
  glycan array binding signal (z-score): -0.166
[28]
  glycan array binding signal (z-score): -0.346
